PubChem BioAssay AID686979 (National Center for Advancing Translational Sciences (NCATS), 2013)
The campaign covered roughly 420,000 compounds. About 50,000 (12%) were called active. Inconclusive results, whose numbers are uncertain, are shown with a selection of clear calls. Calls follow the shape of the dose curve; as a rule, active = well fitted inhibition curve with a large enough effect; inconclusive = small, poorly fitted or top-dose-only effect; inactive = flat fitted curve, though single readings scatter. Potencies of inconclusive entries are left out as doubtful fits.

Test: qHTS for Inhibitors of human tyrosyl-DNA phosphodiesterase 1 (TDP1): qHTS in cells in presence of CPT; also: nearly all actives have a fitted effect of over 55% in size
Conditions: chicken DT40 Tdp1-/-;hTDP1 cells + 20 nM CPT, ATP luminescence, 48 h; activity change, negative = growth inhibition: at 46.2 µM (top of the series) unless noted
Procedure, shortened: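 Chicken DT40 Tdp1-/- cells stably complemented with human TDP1 were seeded at 400 cells/well in medium containing 20 nM camptothecin, exposed to pin-transferred compounds, and grown at 37 °C for at least 48 hr. Viability was read as ATP luminescence.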
% is scaled to controls: 0 for no effect and ±100 for the full control effect; potency is read from the fitted curve at half-maximal effect; tags tell the direction and shape of the fitted curve.

Row | SMILES | Potency | activity change, negative = growth inhibition
1 | CN(CC(=O)NC1CCN(Cc2ccccc2)CC1)S(=O)(=O)c1ccc(Br)s1 | inconclusive [inhibitor, single point] | 
2 | O=C(Nc1cccc(Cl)c1Cl)c1ccc(-c2ccccc2)cc1 | inconclusive [inhibitor, partial curve, poor fit] | 
3 | Cc1cc(C)c(NC(=O)CSc2nccn2-c2cccc(Cl)c2)c(C)c1 | inconclusive [inhibitor, single point] | 
4 | CC(=O)Nc1ccc(S(=O)(=O)N(C)CC(=O)NCCC2=CCCCC2)cc1 | inactive | 
5 | Cc1ccc2c(Cl)c(Cc3ccccc3)c(=S)[nH]c2n1 | inconclusive [inhibitor, single point] | 
6 | O=Cc1c(Sc2ccccc2)nc2ccccn2c1=O | inconclusive [inhibitor, single point] | 
7 | CCn1nc(C)c(/C=N/NC(=S)Nc2ccc(Cl)cc2Cl)c1C | active: 8.2 µM | 
8 | CCOC(=O)C1(C)CCCN1C(=O)c1ccc(C(=O)OC)cc1 (stereo not drawn) | inactive | 
9 | COC(=O)/C=C1\N/C(=N/c2nc(C)c3cc(OC)ccc3n2)NC1=O | active: 11.6 µM | 
10 | CCOC(=O)C1CCN(c2c(NC3CCCc4ccccc43)c(=O)c2=O)CC1 (stereo not drawn) | inactive | 
11 | Cc1cccc(C(=O)Nc2ccn(C)n2)c1 | inactive | 
12 | CCOC(=O)C(Cc1ccccc1)NC(=O)CCc1c(C)nc2nc(C)nn2c1C (stereo not drawn) | inconclusive [inhibitor, single point] | 
13 | COc1ccc(NC(=O)c2sc3nc4c(cc3c2N)CCCCCC4)cc1 | inconclusive [inhibitor, single point] | 
14 | Cc1cccc(NC(=O)/C(C#N)=C/c2ccc[nH]2)c1C | active: 11.6 µM | 
15 | COc1cccc(OCCSc2nc3ccccc3c(=O)[nH]2)c1 | inactive | 
16 | COc1cc(Cc2nc3ccc(S(=O)(=O)N4CCOCC4)cc3[nH]2)cc(OC)c1OC | inconclusive [inhibitor, single point] | 
17 | Cc1nn(-c2ccc(F)cc2)c(Cl)c1/C=C/C(=O)OCC(=O)Nc1c(F)c(F)c(F)c(F)c1F | inactive | 
18 | Cc1cc(-c2nc3ccccc3s2)ccc1N | inconclusive [inhibitor, single point] | 
19 | O=C(Nc1ccc([N+](=O)[O-])c(NC(=O)c2cccnc2)c1)c1cccnc1 | inactive | 
20 | CC1CCc2c(sc(NC(=O)COC(=O)c3ccc(NC(=O)CC#N)cc3)c2C#N)C1 (stereo not drawn) | inactive | 
21 | COc1cccc(-n2c(-c3ccccc3F)nc3c(cnn3-c3ccc(C)cc3)c2=O)c1 | active: 16.4 µM | 
22 | Cc1cc(=O)n2[nH]c(-c3ccc(F)cc3)cc2n1 | inconclusive [inhibitor, partial curve, poor fit] | 
23 | COc1ccc(C(=O)CC(Sc2ccccc2N)c2ccc(OC)cc2)cc1 (stereo not drawn) | inconclusive [inhibitor, single point] | 
24 | N=c1c2c3c(sc2nc2n1CCCCC2)CCCCC3 | active: 23.1 µM | 

Row | SMILES | Potency | activity change, negative = growth inhibition
25 | Cc1ccccc1OCc1nc2c3cnn(-c4ccccc4F)c3ncn2n1 | inactive | 
26 | COc1cccc2oc(CCc3ccccc3)cc(=O)c12 | inconclusive [inhibitor, single point] | 
27 | CCOC(=O)c1sc2nccc(N(C)C)c2c1N=CNOC | inconclusive [inhibitor, single point] | 
28 | CC(C)(C)OC(=O)NCCCCCNC(=O)c1nc[nH]c1C(=O)N1CCc2ccccc2C1 | inconclusive [inhibitor, single point] | 
29 | O=C(NC1CCCC1)c1ccc2c(=O)n(Cc3ccccc3)c(SCc3cccc([N+](=O)[O-])c3)nc2c1 | inactive | 
30 | Cc1ccccc1NC(=O)CSc1nc(-c2ccccc2)cn1-c1ccccc1F | inconclusive [inhibitor, single point] | 
31 | COc1ccc(CNC(=O)CSc2ncc3c(n2)-c2cc(Cl)ccc2N(Cc2ccccc2)S3(=O)=O)cc1 | inactive | 
32 | O=C(c1ccc(F)cc1)N1CCN(c2ncccn2)CC1 | inactive | 
33 | COc1cc(OC)cc(C(=O)NNC(=O)C2CCCC2)c1 | inactive | 
34 | O=S(=O)(c1cccc2nonc12)N1CCCCCC1 | inconclusive [inhibitor, single point] | 
35 | Cc1cc(NC(=O)CSCC(=O)N(c2ccc(F)cc2)C(C(=O)NC2CCCCC2)c2ccc(O)c(O)c2)no1 (stereo not drawn) | inconclusive [inhibitor, single point] | 
36 | C=CCNC(=O)CN1CCC(NC(=O)c2ccco2)CC1 | inactive | 
37 | Clc1cccc(CN2CCSCC2)c1 | inactive | 
38 | Cc1cc2c3c([nH]c2cc1S(=O)(=O)NCc1ccc(CN2CCCCCC2)o1)CC(C)(C)CC3=O | inconclusive [inhibitor, single point] | 
39 | Cc1cccc(N(Cc2ccccc2)C(=O)c2ccccc2S(C)(=O)=O)c1 | inconclusive [inhibitor, partial curve] | 
40 | CCOC(=O)c1sc(NC(=O)CC)nc1C | inactive | 
41 | Cc1ccccc1-c1cc(N(C)Cc2ccco2)ncn1 | inconclusive [inhibitor, single point] | 
42 | Cc1cc(/C=N\NC(=O)CC(=O)NC2CCCCC2)c(C)n1-c1ccc(Cl)cc1 |  | inconclusive: -33.8% [inhibitor]
43 | COc1ccc(COC(=O)C2=C(C)NC(=O)NC2c2ccccc2)cc1 (stereo not drawn) | inactive | 
44 | COc1cccc(N2CCN(C(=O)c3c(C)nn(-c4ccccc4)c3C)CC2)c1 | inactive | 
45 | CC(C)(C)OC(=O)C[C@@H]1C/C=C\C[C@H](CC(=O)N(CCO)Cc2ccccc2)C(=O)N[C@@H](c2ccccc2)COC1=O | inconclusive [inhibitor, single point] | 
46 | S=C(NCCCc1cnc[nH]1)NCCCN(CCc1ccc(Cl)cc1)c1ccc(Br)cn1 | inconclusive [inhibitor, single point] | 
47 | Cc1ccc(Cl)cc1N1CCN(C(=O)Cn2c(-c3cccs3)cc3cc(F)ccc32)CC1 | inactive | 
48 | COc1ccc(CNC(=O)c2ccc(Br)s2)cc1OC |  | inconclusive: -33.2% [inhibitor]
